Laboratory results reported in PubChem BioAssay AID1347165 (National Center for Advancing Translational Sciences (NCATS), 2019).
Several values for one entry are separate records, joined by “and”; a condition that tells them apart may be missing. Equal entries are not always repeated. Among all 220,000 compounds or so, about 5,700 (2.6%) were called active. Inconclusive results, whose numbers are uncertain, are shown with a selection of clear calls. Calls come from the whole dose curve; as a rule, active = well fitted inhibition curve with a large enough effect; inconclusive = small, poorly fitted or top-dose-only effect; inactive = no such curve, though single readings can be large or run the other way. Where the call is inconclusive, the potency comes from a doubtful curve fit.

Each molecule was assayed against Lysine-specific demethylase 5B (Homo sapiens) (UniProt Q9UGL1) (assay: Primary screen for KDM5B Histone Demethylases FDH-coupled qHTS). Settings: FDH-coupled NADH fluorescence (FDH is formaldehyde dehydrogenase); activity change, negative = inhibition: at 57.7 µM (top of the series) unless noted.
How it was run: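 Compound dilutions met 200 nM (final) KDM5BΔAP for 10 min at room temperature before substrate addition. The substrate mix held 12.5 µM H3K4me3 with cofactors 25 µM α-ketoglutarate and 50 µM Fe²⁺. NADH signal gain over 30 min defined activity.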
Note: nearly all actives have a fitted effect of over 70% in size.
Potency is the fitted concentration of half-maximal effect; tags give direction and shape of the fitted curve.
Throughout, for activity change, negative = inhibition: 0% is about no effect.

Sequence of UniProt Q9UGL1 (Q9UGL1 whole entry, looked up): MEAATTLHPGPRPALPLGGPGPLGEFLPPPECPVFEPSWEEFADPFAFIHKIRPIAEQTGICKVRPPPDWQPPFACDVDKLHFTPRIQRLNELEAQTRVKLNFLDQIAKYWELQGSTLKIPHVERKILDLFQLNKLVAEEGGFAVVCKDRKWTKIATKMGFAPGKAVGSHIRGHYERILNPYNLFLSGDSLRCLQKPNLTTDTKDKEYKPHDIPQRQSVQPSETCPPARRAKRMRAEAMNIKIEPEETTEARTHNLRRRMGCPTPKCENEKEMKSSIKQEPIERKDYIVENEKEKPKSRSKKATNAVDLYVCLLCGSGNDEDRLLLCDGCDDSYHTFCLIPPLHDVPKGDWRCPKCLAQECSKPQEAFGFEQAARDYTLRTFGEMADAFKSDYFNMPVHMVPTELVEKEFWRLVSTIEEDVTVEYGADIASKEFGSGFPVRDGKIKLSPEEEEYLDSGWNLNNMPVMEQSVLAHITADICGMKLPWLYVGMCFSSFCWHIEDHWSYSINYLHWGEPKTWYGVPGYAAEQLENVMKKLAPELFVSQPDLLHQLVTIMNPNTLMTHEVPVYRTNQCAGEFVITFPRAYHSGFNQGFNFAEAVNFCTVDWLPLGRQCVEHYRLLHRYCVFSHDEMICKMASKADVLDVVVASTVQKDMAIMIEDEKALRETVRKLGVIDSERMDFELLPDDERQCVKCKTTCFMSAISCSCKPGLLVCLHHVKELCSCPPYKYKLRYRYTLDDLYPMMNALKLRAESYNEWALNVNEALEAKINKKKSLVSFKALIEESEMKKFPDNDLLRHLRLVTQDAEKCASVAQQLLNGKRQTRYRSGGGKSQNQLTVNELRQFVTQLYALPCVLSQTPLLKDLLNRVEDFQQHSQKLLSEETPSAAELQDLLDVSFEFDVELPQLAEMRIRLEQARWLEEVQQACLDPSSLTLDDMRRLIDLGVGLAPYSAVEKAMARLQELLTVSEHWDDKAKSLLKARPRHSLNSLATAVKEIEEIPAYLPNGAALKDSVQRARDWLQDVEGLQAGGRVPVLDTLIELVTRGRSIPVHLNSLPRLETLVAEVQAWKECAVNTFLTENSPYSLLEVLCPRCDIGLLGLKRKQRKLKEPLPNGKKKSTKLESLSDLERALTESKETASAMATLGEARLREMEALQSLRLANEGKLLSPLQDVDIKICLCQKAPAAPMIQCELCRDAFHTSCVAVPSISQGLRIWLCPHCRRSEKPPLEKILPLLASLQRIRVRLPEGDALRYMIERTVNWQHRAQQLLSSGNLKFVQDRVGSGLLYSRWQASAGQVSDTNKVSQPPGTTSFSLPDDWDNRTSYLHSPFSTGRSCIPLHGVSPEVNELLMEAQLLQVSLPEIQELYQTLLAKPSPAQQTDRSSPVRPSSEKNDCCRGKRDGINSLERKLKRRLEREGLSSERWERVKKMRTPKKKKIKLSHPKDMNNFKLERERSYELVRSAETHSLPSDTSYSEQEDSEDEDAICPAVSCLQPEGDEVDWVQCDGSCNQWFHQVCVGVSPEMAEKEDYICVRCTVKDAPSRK

SMILES	Potency	activity change, negative = inhibition
Cc1ccc(C)c(Cn2c(C(=O)O)c(CNCc3cccs3)c3ccccc32)c1	inconclusive: 31.6 µM [inhibitor, single point]	
COc1ccc(N2CCN(C(c3ccccc3F)c3sc4nc(-c5ccco5)nn4c3O)CC2)cc1 (centres undefined)	inconclusive: 15.8 µM [inhibitor, partial curve, poor fit]	
CC(=O)c1c(C)oc2ccc(NS(=O)(=O)c3ccc4ccccc4c3)cc12	inactive	
O=C1c2c(nc(COc3cccc(C(F)(F)F)c3)n2Cc2ccccc2)NCCN1CC1CC1	inactive	
COc1ccc2nc(-c3ccccc3)cc(C(=O)OCC(=O)N3CC(C)OC(C)C3)c2c1 (centres undefined)	inconclusive: 20 µM [inhibitor, partial curve, poor fit]	
COc1ccc(CCNc2nc(SCc3ccc(Cl)cc3)nc3ccccc23)cc1OC		inconclusive: -43% [inhibitor]
COc1cccc(NC(=O)CSc2nnc(-c3ccco3)c(-c3ccco3)n2)c1	inconclusive: 28.2 µM [inhibitor, partial curve, poor fit]	
COc1ccc(C2C=C(c3ccccc3)Nc3nc(NC(=O)/C=C/c4ccccc4Cl)nn32)cc1 (centres undefined)	inconclusive: 25.1 µM [inhibitor, single point]	
CCCNC(=O)[C@@H]1Cc2cn(Cc3nccn3C)c3cccc(c23)[C@H](CC(C)C)N1	inconclusive: 28.2 µM [inhibitor, single point]	
COc1cc(NC(=O)c2ncoc2-c2ccc(OC)c(OC)c2)cc(OC)c1	inconclusive: 31.6 µM [inhibitor, single point]	
CCOc1ccc(CNC(=O)CS(=O)(=O)c2cccc3nsnc23)cc1	inconclusive: 2 µM [inhibitor, full curve, poor fit]	
O=C1NC2(CCCN(Cc3ccc(C(F)(F)F)cc3)C2)COc2ccccc21 (centres undefined)	active: 35.5 µM and active: 25.1 µM	
CCn1nnc2cc(C(=O)Nc3nc(-c4ccc5c(c4)CCC5)cs3)ccc21	inactive	
N#Cc1nc(C2CC2)oc1N1CCN(C(=O)c2cncc(Br)c2)CC1	inactive	
Cc1ccc(CN2CC[C@H](c3nc4ccc(C)cc4[nH]3)C2)cc1	inconclusive: 28.2 µM [inhibitor, partial curve, poor fit]	
O=C(Nc1ccc2[nH]c(=O)[nH]c2c1)c1nn(-c2ccc(F)cc2)c2c1CCCC2	inconclusive: 1.78 µM [inhibitor, partial curve, poor fit]	
CCOC(=O)c1ccccc1NC(=O)c1ccc(N2CCCCS2(=O)=O)cc1Cl	inactive	
Cc1c(C(=O)N2CCC3(CC2)CC(C(=O)O)N(C)C3)c[nH]c(=O)c1C#N (centres undefined)	inconclusive: 14.1 µM [inhibitor, partial curve, poor fit]	
O=C(NC1CCN(Cc2ccc(F)c(F)c2)CC1)c1ccc2nccn2c1	active: 28.2 µM	
COCCN(C)C(=O)c1nc2nc(-c3ccccc3)c(Cl)cc2n1C	inconclusive: 39.8 µM [inhibitor, single point]	
CCc1ccc(C(=O)COC(=O)C(NC(=O)c2ccccc2C)C(C)C)cc1 (centres undefined)	inactive	
CC(=O)c1ccc(N2CCN(c3ccc4cc(S(=O)(=O)N5CCCCC5)ccc4n3)CC2)cc1	inconclusive: 25.1 µM [inhibitor, single point]	

SMILES	Potency	activity change, negative = inhibition
CC(C)Sc1nc2c(c(=O)[nH]c(=O)n2C)n1Cc1ccccc1Cl	inactive	
COc1ccccc1-c1nnc2n1C(C(=O)N1CCN(c3ncccn3)CC1)CC2 (centres undefined)	inconclusive: 79.4 µM [inhibitor, partial curve, poor fit]	
O=C(COC(=O)C1CC(=O)N(NC(=O)c2ccccc2)C1)c1ccc(Br)cc1 (centres undefined)	inactive	
CCC(=O)C1=C(c2ccc(OC)c(OC)c2)N(C(=O)CC)n2c(nnc2-c2ccc(C)cc2)S1	inconclusive: 17.8 µM [inhibitor, partial curve, poor fit]	
OC(c1ccccc1)(c1ccccc1)C1CCN(Cc2cccc(OCc3ccccc3)c2)CC1	inconclusive: 11.2 µM [inhibitor, partial curve, poor fit]	
COc1ccc(Cc2nc3nccc(-c4ccc(F)cc4OC)n3n2)cc1	active: 17.8 µM	
O=c1c2c(CO)c(-c3ccccc3)nn2ccn1Cc1cc(=O)n2ccccc2n1	inconclusive: 28.2 µM [inhibitor, single point]	
O=S1(=O)CCN(C2CCCCC2)c2c(F)nc(F)c(F)c21	inconclusive: 39.8 µM [inhibitor, single point]	
COc1ccccc1/C=C(\NC(=O)c1cccc(C)c1)C(=O)Nc1ccccn1	inconclusive: 28.2 µM [inhibitor, partial curve, poor fit]	
COc1cc(OC)cc(C(=O)Nc2ccc3oc(-c4cc(OC)c(OC)c(OC)c4)nc3c2)c1	inconclusive: 28.2 µM [inhibitor, partial curve, poor fit]	
COc1cc(SC)ccc1C(=O)O	inactive	
COc1ccc(C)cc1NC(=O)CC1NCCNC1=O (centres undefined)	inconclusive: 20 µM [inhibitor, single point]	
COc1ccc(OCc2cc(C(=O)NC(CO)C(C)C)no2)c2ccccc12 (centres undefined)	inconclusive: 12.6 µM [inhibitor, partial curve]	
O=C(N/C(=C\c1ccco1)C(=O)N1CCOCC1)c1ccccc1Cl	inconclusive: 39.8 µM [inhibitor, single point]	
CC(O)CNc1ncnc2c1oc1nc(C(C)C)c3c(c12)CCC3 (centres undefined)	inconclusive: 25.1 µM [inhibitor, partial curve, poor fit]	
Cc1cc(=O)n(Cc2ccccc2)c2c1c(C)nn2C	inconclusive: 31.6 µM [inhibitor, single point]	
Cc1ccc(NC(=O)Nc2ccccc2)c(=O)n1CC(=O)NCCN1CCCCC1	inconclusive: 28.2 µM [inhibitor, single point]	
COc1ccc(-c2ccnc(N[C@H]3CO[C@H]4[C@@H]3OC[C@@H]4NC(=O)CCCC(=O)O)n2)cc1	active: 31.6 µM	
CC(C)CCN1CCc2c(n(CCOc3ccccc3)n(-c3ccccc3)c2=O)C1	inconclusive: 39.8 µM [inhibitor, single point]	
CC(C)CCNC(=O)c1ccc2c(c1)N(S(=O)(=O)c1ccccc1)CC2	inconclusive: 28.2 µM [inhibitor, partial curve, poor fit]	
CCCCCn1c(CN2CCN(c3ccc(OC)cc3)CC2)nc2c1c(=O)[nH]c(=O)n2C	inconclusive: 14.1 µM [inhibitor, partial curve, poor fit]	
Cc1ccc2nc(N3CCN(C4CCCCC4)CC3)c(-n3nc(C)cc3C)nc2c1	inconclusive: 31.6 µM [inhibitor, partial curve, poor fit]	

SMILES	Potency	activity change, negative = inhibition
Cc1cccc(C)c1-c1nc(C(=O)NCc2ccsc2)n2ccccc12	active: 31.6 µM	
O=C(Nc1cccc(-c2cc3cc(F)ccc3[nH]2)c1)C1CC1	inconclusive: 25.1 µM [inhibitor, partial curve, poor fit]	
CCOc1ccc(-c2cc3nc(C4CCN(C(=O)OC(C)(C)C)CC4)c(C(=O)Nc4cc(OC)ccc4OC)cn3n2)cc1	inconclusive: 3.55 µM [inhibitor, full curve, poor fit]	
CC(=O)Nc1ccc(C(=O)N2Cc3ccccc3OC3(CCN(C(C)=O)CC3)C2)cc1	inactive	
Cn1c(=O)c2c(ncn2CC(=O)Nc2ccccc2Oc2ccccc2Cl)n(C)c1=O	inactive	
Cc1ccc(-n2nc(-c3ccco3)cc2C(=O)O)cc1	inconclusive: 20 µM [inhibitor, single point]	
O=C(Nc1ccc2[nH]c(=O)[nH]c2c1)c1nn(-c2ccccc2)c2c1CCCCC2	inconclusive: 39.8 µM [inhibitor, single point]	
COC(=O)c1ccccc1NC(=O)c1cccc(N2CCCN(Cc3ccc(Cl)cc3)C2=O)c1	inactive	
O=C1CCC2(CNC(=O)c3ccco3)CCCC=C2N1 (centres undefined)	inactive	
Cc1nn(C)c2c1c(-c1ccccc1)cc(=O)n2CC(=O)NC(C)c1ccccc1 (centres undefined)	inconclusive: 14.1 µM [inhibitor, partial curve, poor fit]	
COC(=O)CC1C(=O)NCCN1C(=S)NC(=O)c1sc2ccccc2c1Cl (centres undefined)	inconclusive: 20 µM [inhibitor, partial curve, poor fit]	
CCCN1CCCC12Cc1ccccc1CN(C(=O)c1c(C)noc1C)C2 (centres undefined)	inconclusive: 56.2 µM [inhibitor, partial curve, poor fit]	
O=C(Nc1c(-c2cc(=O)oc3ccc(Cl)cc23)oc2ccccc12)C1CC1	inactive	
COCCn1c(SCc2ccc(OC)c(F)c2)nnc1-c1ccc(Cl)cc1	inactive	
CC(C)CN1CCN(C(=O)C2CCCN(S(C)(=O)=O)CCC(=O)NCC2)CC1 (centres undefined)	inconclusive: 25.1 µM [inhibitor, partial curve]	
CC1CC(C)CN(S(=O)(=O)c2ccc3c(c2)n(C)c(=O)c(=O)n3C)C1 (centres undefined)	inconclusive: 10 µM [inhibitor, partial curve, poor fit]	
N#Cc1nc(-c2ccc(COc3ccc(Cl)cc3)o2)oc1N1CCC(C(N)=O)CC1	inconclusive: 35.5 µM [inhibitor, partial curve, poor fit]	
COC(=O)c1ccc2nc(C)cc(Nc3ccc(C)c(C)c3)c2c1	inactive	
COC(=O)C1=C(C)Nc2nc3ccccc3n2C1c1ccccc1F (centres undefined)	inconclusive: 31.6 µM [inhibitor, partial curve, poor fit]	
Cc1ccc(-n2ncc3c(NCCCN4CCOCC4)ncnc32)cc1C	inconclusive: 28.2 µM [inhibitor, partial curve, poor fit]	
